# Data published in the antibiotic and cytotoxicity screens of Wong et al. (2023).
# The other results are listed elsewhere or left out.
# System: HSkMC (human skeletal muscle cells)
# Assay: cytotoxicity call (relative viability < 0.9)
# Settings: 10 µM
row,Compound,cytotoxicity call
1,c1ccc([C@@H]2CCC[C@H](c3ccccc3)S2)cc1,inactive
2,Cc1noc(C)c1NC(=O)Nc1ccc2c(c1)C(=O)N([C@H](C)CO)C[C@@H](C)[C@@H](CN(C)C(=O)C1CCCCC1)OCCCC[C@H](C)O2,inactive
3,C[C@H]1CN([C@@H](C)CO)C(=O)c2c(c3ccccc3n2C)-c2ccccc2CO[C@H]1CN(C)Cc1ccc(C(=O)O)cc1,inactive
4,C[C@@H]1CN([C@H](C)CO)C(=O)CCCn2nncc2CO[C@H]1CN(C)S(=O)(=O)c1ccc(Cl)cc1,inactive
5,O=c1[nH]c(=O)c2ccccc2[nH]1,inactive
6,COc1ccc(CN(C)C[C@@H]2OCCCC[C@H](C)Oc3ccc(NC(=O)Nc4ccccc4)cc3C(=O)N([C@H](C)CO)C[C@H]2C)cc1,inactive
7,COCC(=O)N(C)C[C@H]1Oc2cc(C#CCN(C)C)ccc2S(=O)(=O)N([C@H](C)CO)C[C@H]1C,inactive
8,COc1ccc(S(=O)(=O)Nc2ccc3c(c2)C(=O)N([C@@H](C)CO)C[C@H](C)[C@@H](CN(C)S(C)(=O)=O)O3)cc1,inactive
9,CC1CN(c2c(F)c(F)c3c(=O)c(C(=O)O)cn(C4CC4)c3c2F)CC(C)N1 (centres undefined),inactive
10,C[C@@H]1CCCCO[C@@H](CN(C)Cc2ccccc2)[C@H](C)CN([C@H](C)CO)C(=O)c2cc(NC(=O)Nc3ccc(C(F)(F)F)cc3)ccc2O1,inactive
11,CC(=O)Nc1ccc(C(C)C)c(C)c1,inactive
12,CN(C)CCCNC(=O)C[C@@H]1CC[C@@H]2[C@@H](COc3ccc(NC(=O)NC4CCCC4)cc3C(=O)N2C)O1,inactive
13,C[C@@H]1CN([C@H](C)CO)C(=O)c2c(c3ccccc3n2C)-c2ccccc2CO[C@H]1CN(C)Cc1ccc2c(c1)OCO2,inactive
14,C[C@H]1CN([C@@H](C)CO)C(=O)c2cc(NC(=O)C3CCCCC3)ccc2O[C@@H]1CN(C)Cc1ccc(-c2ccccc2)cc1,inactive
15,CCO[C@@H]1OC(C(=O)N2CCN(Cc3ccccc3)CC2)=C[C@H](c2ccc(C(F)(F)F)cc2)[C@H]1CCCOC(=O)NCCCCCC(=O)NO,inactive
16,C[C@@H]1CN([C@@H](C)CO)C(=O)c2cccc(NC(=O)c3ccc(-c4nccs4)cc3)c2O[C@@H]1CN(C)Cc1ccc(-c2ccccc2)cc1,inactive
17,C[C@@H]1CN([C@@H](C)CO)C(=O)c2cccc(NC(=O)c3ccncc3)c2O[C@@H]1CN(C)Cc1ccc(Oc2ccccc2)cc1,inactive
18,C[C@@H]1CCCCO[C@H](CN(C)CC2CCCCC2)[C@H](C)CN([C@H](C)CO)C(=O)c2cc(NS(=O)(=O)c3cccs3)ccc2O1,inactive
19,CCCN(C)C[C@H]1OCCCC[C@@H](C)Oc2ccc(NC(=O)CCC(F)(F)F)cc2C(=O)N([C@H](C)CO)C[C@@H]1C,inactive

# System: HepG2
# Assay: cytotoxicity call (relative viability < 0.9)
# Settings: 10 µM
row,Compound,cytotoxicity call
1,COc1ccccc1-c1ccc2c(c1)O[C@H](CN(C)C(=O)c1cccnc1)[C@H](C)CN([C@H](C)CO)S2(=O)=O,inactive
2,Cc1ccc(S(=O)(=O)N2C[C@H](O)COC[C@H]3O[C@@H](CC(=O)N4CCc5ccccc5C4)CC[C@@H]32)cc1,inactive
3,C[C@@H](CO)N1C(=O)[C@@H]2[C@H]3C(=O)OCC=C[C@H]3O[C@]23C=CCN(C(C)(C)C)C(=O)[C@@H]13,inactive
4,C[C@H](CO)N1C[C@H](C)[C@@H](CN(C)C(=O)Nc2ccnc(N3CCOCC3)c2)OCc2cnnn2CCCC1=O,inactive
5,COc1ccc(CN(C)C[C@@H]2OCCCC[C@H](C)Oc3ccc(NS(=O)(=O)c4ccccc4)cc3C(=O)N([C@@H](C)CO)C[C@H]2C)cc1,inactive
6,O=C(C[C@@H]1CC[C@H]2[C@@H](COC[C@H](O)CN2S(=O)(=O)c2ccccc2)O1)N[C@@H]1CCN(Cc2ccccc2)C1,inactive
7,COc1ccc(NC(=O)Nc2ccc3c(c2)C(=O)N([C@H](C)CO)C[C@H](C)[C@H](CN(C)Cc2ccc(Cl)c(Cl)c2)O3)cc1,active
8,COc1ccc(S(=O)(=O)N(C)C[C@@H]2Oc3ccc(NS(=O)(=O)c4cn(C)cn4)cc3C(=O)N([C@H](C)CO)C[C@@H]2C)cc1,inactive
9,Cc1ccc(S(=O)(=O)N(C)C[C@@H]2Oc3ccc(NS(=O)(=O)c4cccs4)cc3C(=O)N([C@@H](C)CO)C[C@H]2C)cc1,inactive
10,O=C(CCCCCNC(=O)OCc1ccc([C@H]2[C@H](C(=O)NCc3ccccc3)c3ccccc3C(=O)N2Cc2ccccc2)cc1)NO,inactive
11,COc1cccc(OC)c1OCCNCCO,inactive
12,O=C(C[C@@H]1C[C@@H]2c3cc(NC(=O)NC4CCCC4)ccc3O[C@@H]2[C@@H](CO)O1)NCc1ccc2c(c1)OCO2,inactive
13,Cc1noc(C)c1NC(=O)N[C@@H]1CC[C@@H](CC(=O)N2CCN(C)CC2)O[C@H]1CO,inactive
14,C[C@H]1CCCCO[C@H](CN(C)Cc2ccccc2)[C@@H](C)CN([C@@H](C)CO)C(=O)c2cc(NS(=O)(=O)c3ccccc3)ccc2O1,inactive
15,Cc1ccc(S(=O)(=O)Nc2cccc3c2O[C@H](CN(C)C(=O)Nc2cccc4ccccc24)[C@@H](C)CN([C@H](C)CO)C3=O)cc1,inactive
16,O=C(CN1CCOC1=O)N1CCC2(CCC(=O)N(CCCn3ccnc3)C2)CC1,inactive
17,COc1ccc(-c2cnc3c(c2)C(=O)N([C@H](C)CO)C[C@H](C)[C@H](CN(C)Cc2cccc(C(F)(F)F)c2)O3)cc1,inactive
18,O=C1[C@H]2C=NN[C@@H]2C(=O)N1Cc1ccccc1,inactive
19,C[C@@H]1CCCCO[C@@H](CN(C)C(=O)NC2CCCCC2)[C@H](C)CN([C@H](C)CO)C(=O)c2cc(NC(=O)c3ccncc3)ccc2O1,inactive
20,Cc1noc(C)c1NC(=O)Nc1ccc2c(c1)C(=O)N([C@@H](C)CO)C[C@H](C)[C@@H](CN(C)C(=O)Nc1ccc3c(c1)OCO3)OCCCC[C@H](C)O2,inactive

row,Compound,cytotoxicity call
1,COc1ccc(S(=O)(=O)Nc2ccc3c(c2)C(=O)N([C@H](C)CO)C[C@@H](C)[C@H](CN(C)C(=O)CCC(F)(F)F)OCCCC[C@@H](C)O3)cc1,inactive
2,c1ccc([C@@H]2CCC[C@H](c3ccccc3)S2)cc1,inactive
3,Cc1noc(C)c1NC(=O)Nc1ccc2c(c1)C(=O)N([C@H](C)CO)C[C@@H](C)[C@@H](CN(C)C(=O)C1CCCCC1)OCCCC[C@H](C)O2,inactive
4,C[C@H]1CN([C@@H](C)CO)C(=O)c2c(c3ccccc3n2C)-c2ccccc2CO[C@H]1CN(C)Cc1ccc(C(=O)O)cc1,inactive
5,C[C@@H]1CN([C@H](C)CO)C(=O)CCCn2nncc2CO[C@H]1CN(C)S(=O)(=O)c1ccc(Cl)cc1,inactive
6,O=c1[nH]c(=O)c2ccccc2[nH]1,inactive
7,COc1ccc(CN(C)C[C@@H]2OCCCC[C@H](C)Oc3ccc(NC(=O)Nc4ccccc4)cc3C(=O)N([C@H](C)CO)C[C@H]2C)cc1,inactive
8,COCC(=O)N(C)C[C@H]1Oc2cc(C#CCN(C)C)ccc2S(=O)(=O)N([C@H](C)CO)C[C@H]1C,inactive
9,COc1ccc(S(=O)(=O)Nc2ccc3c(c2)C(=O)N([C@@H](C)CO)C[C@H](C)[C@@H](CN(C)S(C)(=O)=O)O3)cc1,inactive
10,CC1CN(c2c(F)c(F)c3c(=O)c(C(=O)O)cn(C4CC4)c3c2F)CC(C)N1 (centres undefined),inactive
11,C[C@@H]1CCCCO[C@@H](CN(C)Cc2ccccc2)[C@H](C)CN([C@H](C)CO)C(=O)c2cc(NC(=O)Nc3ccc(C(F)(F)F)cc3)ccc2O1,active
12,CC(=O)Nc1ccc(C(C)C)c(C)c1,inactive
13,CN(C)CCCNC(=O)C[C@@H]1CC[C@@H]2[C@@H](COc3ccc(NC(=O)NC4CCCC4)cc3C(=O)N2C)O1,inactive
14,C[C@@H]1CN([C@H](C)CO)C(=O)c2c(c3ccccc3n2C)-c2ccccc2CO[C@H]1CN(C)Cc1ccc2c(c1)OCO2,inactive
15,C[C@H]1CN([C@@H](C)CO)C(=O)c2cc(NC(=O)C3CCCCC3)ccc2O[C@@H]1CN(C)Cc1ccc(-c2ccccc2)cc1,inactive
16,CCO[C@@H]1OC(C(=O)N2CCN(Cc3ccccc3)CC2)=C[C@H](c2ccc(C(F)(F)F)cc2)[C@H]1CCCOC(=O)NCCCCCC(=O)NO,inactive
17,C[C@@H]1CN([C@@H](C)CO)C(=O)c2cccc(NC(=O)c3ccc(-c4nccs4)cc3)c2O[C@@H]1CN(C)Cc1ccc(-c2ccccc2)cc1,active
18,C[C@@H]1CN([C@@H](C)CO)C(=O)c2cccc(NC(=O)c3ccncc3)c2O[C@@H]1CN(C)Cc1ccc(Oc2ccccc2)cc1,inactive
19,C[C@@H]1CCCCO[C@H](CN(C)CC2CCCCC2)[C@H](C)CN([C@H](C)CO)C(=O)c2cc(NS(=O)(=O)c3cccs3)ccc2O1,inactive
20,CCCN(C)C[C@H]1OCCCC[C@@H](C)Oc2ccc(NC(=O)CCC(F)(F)F)cc2C(=O)N([C@H](C)CO)C[C@@H]1C,inactive
